We go through 1 molecule from patent US20250009878A1.

This assay addresses WT MCT4/BSG-2 complex (mouse) (mouse), P57787. In words: cell-based or functional assay.

Chain of WT MCT4/BSG-2 complex (mouse) (mouse), P57787 (P57787 whole entry, chain 1 of 2): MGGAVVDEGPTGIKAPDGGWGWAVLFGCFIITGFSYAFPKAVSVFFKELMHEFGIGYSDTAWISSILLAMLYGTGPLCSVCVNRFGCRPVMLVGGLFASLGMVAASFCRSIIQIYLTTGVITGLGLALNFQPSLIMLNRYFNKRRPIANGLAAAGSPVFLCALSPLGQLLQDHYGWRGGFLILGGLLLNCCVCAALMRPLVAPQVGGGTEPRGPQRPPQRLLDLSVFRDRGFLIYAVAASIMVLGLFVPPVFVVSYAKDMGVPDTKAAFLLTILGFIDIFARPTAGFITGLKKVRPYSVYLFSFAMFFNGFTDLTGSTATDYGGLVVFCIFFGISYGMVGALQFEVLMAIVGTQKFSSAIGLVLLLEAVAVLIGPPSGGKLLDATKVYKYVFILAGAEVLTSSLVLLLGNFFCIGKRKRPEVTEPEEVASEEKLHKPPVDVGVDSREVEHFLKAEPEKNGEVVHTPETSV
Chain of WT MCT4/BSG-2 complex (mouse) (mouse), P57787 (P18572 other isoform, or with tags, fused parts or gaps, chain 2 of 2, further chain): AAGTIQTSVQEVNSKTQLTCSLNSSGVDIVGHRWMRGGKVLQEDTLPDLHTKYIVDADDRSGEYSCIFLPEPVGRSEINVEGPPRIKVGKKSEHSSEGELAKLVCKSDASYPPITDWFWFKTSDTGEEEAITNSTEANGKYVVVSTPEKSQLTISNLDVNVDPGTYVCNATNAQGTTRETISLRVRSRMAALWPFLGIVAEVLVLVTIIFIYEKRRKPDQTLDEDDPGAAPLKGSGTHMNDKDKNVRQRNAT

B1: WZHAb10 (antibody, human IgG1, kappa)
heavy: QVQLVQSGAEVKKPGASVKVSCKASGYTFTNYWIHWVRQAPGQGLEWMGMIHPNSGSINYNEKFKTRVTMTRDTSTSTVYMELSSLRSEDTAVYYCARVGSGSLDYWGQGTLVTVSS[human IgG1 constant region left out here]
light: EIVLTQSPATLSLSPGERATLSCRASQSISDYLHWYQQKPGQAPRLLIKYVSQSISGIPARFSGSGSGTYFTLTISSLEPEDVAVYYCQNGEEAPYTFGQGTKLEIKRTVAAPSVFIFPPSDEQLKSGTASVVCLLNNFYPREAKVQWKVDNALQSGNSQESVTEQDSKDSTYSLSSTLTLSKADYEKHKVYACEVTHQGLSSPVTKSFNRGEC
For B1, the decrease in transport activity (H+ influx, HPTS proteoliposome flux assay) turned out to be 50%.
